The full ranking holds about 33,000 sequences; the median of “E-score (-0.5 to 0.5)” is about -0.054, and the highest 2% start at about 0.35. The list shows a part of the results.
target: T1, Stb5 (UniProt P38699); test: PBM E-score (8-mer binding enrichment) (E-score (-0.5 to 0.5)); higher = stronger / more preferred TF binding; most listed sequences are background and not binding sites; details: protein concentration: 200 nM; construct: GST-full length
T1 sequence: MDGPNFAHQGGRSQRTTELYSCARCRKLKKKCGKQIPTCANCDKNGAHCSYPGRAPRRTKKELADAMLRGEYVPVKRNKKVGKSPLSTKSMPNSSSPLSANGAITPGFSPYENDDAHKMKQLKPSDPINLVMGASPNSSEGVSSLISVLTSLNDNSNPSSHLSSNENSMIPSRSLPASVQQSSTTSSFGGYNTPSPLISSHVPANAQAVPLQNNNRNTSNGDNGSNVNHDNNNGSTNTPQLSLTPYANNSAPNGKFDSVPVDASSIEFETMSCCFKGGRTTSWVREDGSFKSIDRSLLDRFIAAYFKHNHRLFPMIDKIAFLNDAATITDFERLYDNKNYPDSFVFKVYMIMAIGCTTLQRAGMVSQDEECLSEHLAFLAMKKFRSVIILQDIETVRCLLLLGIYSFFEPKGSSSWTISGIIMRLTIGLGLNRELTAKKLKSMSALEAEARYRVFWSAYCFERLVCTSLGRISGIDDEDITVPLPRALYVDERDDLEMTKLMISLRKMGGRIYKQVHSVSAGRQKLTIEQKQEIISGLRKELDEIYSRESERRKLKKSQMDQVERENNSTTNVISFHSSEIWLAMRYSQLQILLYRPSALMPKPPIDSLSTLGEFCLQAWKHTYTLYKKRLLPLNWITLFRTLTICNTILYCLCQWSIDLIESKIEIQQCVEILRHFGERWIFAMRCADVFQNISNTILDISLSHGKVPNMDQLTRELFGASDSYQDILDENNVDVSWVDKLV
Summary of the method: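 Universal all-10-mer Agilent arrays, double-stranded by primer extension on fresh or once-stripped slides, were probed with about 100-200 nM GST-tagged yeast transcription factors made by PURExpress. Fluorescent anti-GST detected bound protein, and masliner normalised the scans. E-scores from the Universal PBM Analysis Suite were given to each ungapped eight-base word pooled with its reverse complement.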

Sequence | PBM E-score
AAAGTGCC | 0.15
ACAGTGCA | -0.0527
CACGGATA | 0.0963
ACTTCATA | -0.166
AGACAACG | 0.0363
CGGATGAG | -0.135
ACGGTAGA | 0.111
AATTATAC | 0.213
AAAAGAGA | -0.201
CCTACACA | -0.2
ACCCATCG | 0.1
ATGAGCAG | -0.258
ACTTTGCG | -0.133
ACCATCCG | -0.0159
TCAGCTGA | -0.186
ATGCCGGG | 0.287
GCATTAGC | -0.0138
CGGTCGAA | 0.166
ATTCTCCC | 0.0255
GGACCTCC | 0.0561
CAGTCTGA | -0.12
ATCGCCTA | -0.0845

Sequence | PBM E-score
GGGTACCA | -0.157
ACAGAGTA | -0.147
ATCCAGAA | -0.227
AATAAGGC | -0.0871
GAGAAATA | 0.139
ATTAAGAA | 0.0289
CGGATTGC | 0.014
AGCGCAAC | 0.0937
CACTTCAC | -0.098
ATGTTCTG | -0.112
CCATTCCG | -0.0472
TCAAACAA | -0.00872
CTTTGAAC | -0.0864
AAGTCAAG | -0.195
GGTATTGA | 0.117
AATACACT | -0.287
GCCTTTAC | 0.00064
GGTCTATA | 0.00974
AGTGCTTA | -0.124
CTTGCCAC | -0.0929
GTTGGGCA | -0.13
AGTGGGCC | -0.237

Sequence | PBM E-score
GTGTAAAA | 0.0796
ATGCGGGA | 0.164
CTCCTATC | 0.0831
ATTTTAAA | 0.201
AAGTAGGT | 0.00443
CAGTCAGA | -0.149
CCGTATAA | 0.307
CCGGGGGC | 0.185
ACAGAGCT | -0.138
GACTATAC | 0.0897
ACGTTTTA | -0.0802
TACCTTAA | -0.0511
ACAAATAG | 0.0815
CCCGTTTA | 0.188
CACCCCAA | -0.194
AAATCGTT | -0.223
CCAGGCAG | -0.297
CCCTGCCA | -0.217
GGGGCTCA | -0.11
AAAAAGCG | 0.144
ACCGACAA | 0.369
GCTGTCGA | -0.079

Sequence | PBM E-score
CCCTATCC | -0.177
CACTTACA | -0.141
AAAGAAAT | -0.118
CATTTGAG | -0.0381
CACTGCTG | -0.276
ATTCCCCG | 0.32
CGGGACCA | 0.279
AATTTCAT | -0.231
AAGTCCCA | -0.0453
AATATTCA | -0.187
CAACAGTA | -0.207
AGTAGATC | 0.00147
CTGAGTGA | 0.0556
CAAGCTTG | -0.0941
ATGCCCTG | -0.181
GATGCGTA | -0.0988
CAGTTCTC | -0.101
AGAGGAAT | -0.295
AAACCCCC | 0.263
AGACTTTC | -0.0373
CTATCTCA | -0.161
ACATAATC | 0.0496

Sequence | PBM E-score
ATGAGCCG | 0.0249
AGAGTATA | 0.0611
GAGTTCCC | -0.0023
ACCTTCTG | 0.0258
AAGACCTA | -0.0173
ACAGCGCC | 0.254
ACAGGTCA | -0.136
CTCGGGTA | -0.061
AATACGGG | 0.254
CGCCCGTC | 0.248
GTGTACTA | -0.186
GTCGGAAA | 0.274
GTAAGGTA | 0.00255
GCGCCGCC | 0.331
ATTCTACG | -0.0844
ATCAATTA | -0.0352
ACTTTCCG | -0.0837
AGCAATAC | -0.0979
AGGTGGCG | -0.092
ACCTTGGG | -0.0415
TGTGTGAA | -0.201
TCTACAAA | -0.17
